The source of these data is the supplement of paper PMC10126150.

Values marked as one replicate rest on one cluster of the flow cell; about a third of the high ones do not repeat.
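Further: ATP exposure 15 min at 22 °C before imaging.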

For this data set, the system named is ATP. The experiment in a line: switch fluorescence ratio, 500 uM ATP over buffer (Cy3 cluster intensity, sum of 5 cycles each) (fold (ratio)); higher = stronger signal-on switching upon ATP binding; sequences stand for … in TCGTCGGCAGCGTCAGATGTGTATAAGAGACAGTTTTTTTTTTTTTTTTTTTTTTTTT…TC. Particulars: aptamer strand: ATP DNA aptamer (quencher-CACCTGGGGGAGTATTGCGGAGGAAGG + anchor), 100 nM annealed; ATP concentration: 500 uM; one replicate. The gist of the method:
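Values give the fluorescence ratio for each switch-domain sequence, averaged from per-cluster ratios of summed target-cycle to summed buffer-cycle Cy3 intensity. The Cy3-labelled switching-strand clusters sat on a modified Illumina MiSeq flow-cell, were annealed to 100 nM quencher-labelled ATP aptamer, and were imaged in selection buffer, then after 15 min with 500 uM ATP at 22 °C. Five cycles ran with NaOH stripping and re-annealing between them, and clusters outside 100-1000 RFU were excluded.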
Consider GTGACTGTGC, for which the switch fluorescence ratio amounted to 1.13.
In the case of AACGCCTGCC it was 1.59; in that of ATCGTAATCG, 0.981; in that of GCGCCTATGT, 1.04.
In the case of GTTAACAGGG it was 1.
For the sequence AACGGCGTCA, the switch fluorescence ratio is 1.
In the case of GGCGCATTTG it was 1.07; in that of CGCGCTTGAC, 1.43; in that of GTCAGTACGC, 1.12.
In the case of AGTCGAGGC it was 1.04; in that of ACGTCTTCGT, 0.971.
The same measure for TTTGGGCGTA: 1.04; for CTGTTAGAAT: 0.988.
Take CGGAGCGAGA: the switch fluorescence ratio stood at 2.21.
For TAGATCGCTT, the switch fluorescence ratio was 0.998.
The same measure for CAATAGAAGG: 0.956; for GCGACATAA: 1.05; for CGCCTGAACT: 1.05.
In the case of CGCAGACCGC it was 1.27; in that of CAGAGATCTA, 1.01; in that of AGCTTAGTTA, 0.969.
The same measure for AGCCGCGCGG: 0.997; for ACTTTTTGAT: 0.975; for TTACAATTAG: 1.03.
In the case of GTTCAATTA, the switch fluorescence ratio is 0.98.
As to ATTACCACAG, the switch fluorescence ratio was 1.1.
Regarding GCAGATCGCC, the switch fluorescence ratio came out at 1.03.
In the case of CAACGTGGTT it was 0.977; in that of GGTCGGGAAA, 1; in that of TCCTCTTCAG, 1.
The same measure for CGCGAGGATT: 1.02.
In the case of CATGAGGGCT it was 1.03.
Take CGTTCTCATC: the switch fluorescence ratio was 0.986.
Turning to TTCATAATTT, the switch fluorescence ratio is 1.02.
Turning to ATGATGGTGA, the switch fluorescence ratio was 1.01.
As for AGGCCAGAGT, the switch fluorescence ratio was found to be 0.985.
In the case of TCCGCTACCG it was 1.54; in that of TCGAGCGTAG, 1.04; in that of TTAGGTCCCA, 1.01.
With GGTAGCGTCG, the switch fluorescence ratio worked out at 0.958.
For the sequence TGAGAAACGA, the switch fluorescence ratio turned out to be 0.998.
Take CGCACACGTT: the switch fluorescence ratio is 0.966.
In the case of TTTGGACTCT it was 0.964; in that of AACAAACAAA, 1.06.
As for GACTAACCTG, the switch fluorescence ratio worked out at 0.934.
In the case of TGTTCAATTA it was 0.985; in that of TGGCGCTAAC, 1.26.
In the case of CTCAACGGG it was 0.96; in that of GCTTGCCCCG, 0.963; in that of TCGTCTACAT, 1.03.
In the case of TTAAATTT it was 0.979; in that of CAGGTTGCGC, 1.
ATGGAAACAT: the switch fluorescence ratio stood at 1.08.
Regarding GTTGCGTTGG, the switch fluorescence ratio is 0.994.
In the case of TTTAGCGAAA, the switch fluorescence ratio is 0.977.
The same measure for ATAGGGGTAA: 0.993; for AGGGTGCATA: 1.02.
In the case of TCGAAGATA it was 1.01.
In the case of ATGGGAACGC it was 1.01; in that of GGCAGTAGGG, 0.994; in that of TTTCGTTATC, 1.02.
In the case of GAGAAGCTCA, the switch fluorescence ratio was found to be 0.936.
Regarding CGCACGGGAT, the switch fluorescence ratio came to 1.12.
In the case of CATGGGAA it was 0.921.
The same measure for AGCGATGTGG: 0.998; for CCCACGTGCG: 1.03; for AAGAGCGTC: 1.01.
The same measure for CTCGGGAGAC: 1.59; for ATCCTCTCTC: 1.07.
For GCGACGAGCG, the switch fluorescence ratio was found to be 0.993.
CGGGAAAGAA: the switch fluorescence ratio came to 1.02.
In the case of TCATCGTAAT it was 1.56.
On to TCGAAACGAA, for which the switch fluorescence ratio was found to be 0.989.
The same measure for TGCAAGTGCC: 1.05; for AGACTTCCCG: 1.04; for ATGCTTTTG: 1.02.
The same measure for TGCTGAGGAC: 1.02; for AATGTTTAGT: 1.01; for AGGTTCTAGA: 1.
In the case of AGTGAGGGT it was 1.
As to TGGCTGTGCG, the switch fluorescence ratio was 0.963.
The same measure for TTTCTCCCGG: 1.17; for ATGACCGAAA: 1.07; for GGGCGGTAGG: 0.985.
For the sequence GGATCGATCA, the switch fluorescence ratio came to 0.995.
In the case of TCTTAGTCG it was 1; in that of GCTCCTCGCA, 1.63; in that of TGATGGTTGC, 0.978.
In the case of TGTTTGTCGA it was 1.06; in that of CTAGATTCCA, 0.971.
In the case of GCGAGGCGG it was 1; in that of GGGCTCCACG, 0.973; in that of ACCCTGCCGC, 1.41.
Regarding GGAGTTGCGT, the switch fluorescence ratio was 0.968.
The same measure for CAGTCTGCGC: 1.08; for GCTCGTCAAT: 1.11.
For the sequence ATAAATGATG, the switch fluorescence ratio is 0.956.
Turning to TATCAATCCT, the switch fluorescence ratio was determined as 1.07.
The same measure for ATGATTGATC: 1.03; for TGCAGGCCCC: 1.05; for CAGAACGATA: 1.06.
The same measure for TGTATATAGT: 0.998.
The same measure for ACGTTTCGTA: 0.986; for CTAAGGGTGC: 1.03; for CTAGTCCTAC: 1.02.
For AGCGCGAAA, the switch fluorescence ratio stood at 1.03.
In the case of CTTGAGTCGG it was 1; in that of CAGGGGTCGA, 0.99; in that of AGAGTGTTAG, 0.963.
In the case of ACTGTTGACG it was 1.04; in that of GGACGCACAT, 1.57; in that of TCAGGTGTTC, 1.57.
The same measure for CGTGAGTGGA: 1.06; for AGTTCTTTGG: 0.998.
In the case of AGGGCCACG, the switch fluorescence ratio was determined as 0.992.
Regarding TATTTCCAGC, the switch fluorescence ratio amounted to 1.06.
The same measure for TGTGAGGAGG: 0.982.
In the case of AGTGTCCCGT it was 1.02.
In the case of CTCAGATAAT it was 1.02; in that of GAGCGAGAGT, 0.992.
